The list shows a part of the results. Values were computed here from the reads of four pooled replicates and scatter widely.
biological target: T1, Pho4 (S. cerevisiae) (UniProt P07270); assay: relative binding free energy (BET-seq); higher = weaker binding; settings: reference: library average
T1 sequence: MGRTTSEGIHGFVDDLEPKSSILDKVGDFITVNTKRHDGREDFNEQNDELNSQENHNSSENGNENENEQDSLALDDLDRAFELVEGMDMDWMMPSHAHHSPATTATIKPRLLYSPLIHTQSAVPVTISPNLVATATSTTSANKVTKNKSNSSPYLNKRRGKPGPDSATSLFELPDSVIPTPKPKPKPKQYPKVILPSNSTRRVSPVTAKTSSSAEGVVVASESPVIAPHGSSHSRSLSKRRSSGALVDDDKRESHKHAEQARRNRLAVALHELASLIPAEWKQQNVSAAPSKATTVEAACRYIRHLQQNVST

Sequence	relative binding free energy [kcal/mol]
AGGTACACGTGCGTAG	-0.06
GAAGTCACGTGTGCTT	0.13
GTTTTCACGTGCGATG	0.26
AGTATCACGTGGAAGT	0.13
TGGTCCACGTGTTAAT	0.11
GGCAACACGTGGGAGG	-0.06
TGCATCACGTGAGTTG	0.14
TCTTGCACGTGGCGTG	-0.16
AGTGTCACGTGCGTCG	-0.05
TTCTGCACGTGGGTGA	-0.14
TTGGTCACGTGATGAT	0.2
TAGTGCACGTGATGGG	0.11
GCGGGCACGTGTGAAG	0.15
AAGGTCACGTGGTGGC	0.15
TGGGACACGTGTCATA	0.08
ATTTTCACGTGGGGCT	0.2
CGAGGCACGTGGGTTA	-0.21
TCTAACACGTGTATGT	-0.08
TCTGGCACGTGAGTGT	0.18
TTGGCCACGTGTGTGG	0.02
GTGGACACGTGGCGGA	0.01
TCGTGCACGTGTCAGG	-0.1
TTATGCACGTGTAGTG	0

Sequence	relative binding free energy [kcal/mol]
GCGTCCACGTGGGTGG	-0.1
TATGTCACGTGGACGT	0.17
GCAGGCACGTGTAGTG	-0.03
CATGGCACGTGTTGAG	-0.1
ATCAGCACGTGTTTGG	-0.21
GGGAGCACGTGATGTC	0.05
GTGCACACGTGTGGGT	0.09
AGGTTCACGTGTGATC	0.3
GGCGGCACGTGATATT	0.06
GGGAGCACGTGGAGCG	-0.05
TTGGGCACGTGGTGAG	-0.13
ATGTTCACGTGGTGAA	0.13
TAGTTCACGTGGCTTG	0.15
ATTTGCACGTGTGGCG	-0.02
GTTGCCACGTGGGATA	-0.04
GAAGACACGTGGGGTA	-0.11
GTTATCACGTGAGCGT	0.29
AAGTGCACGTGAGTTG	0.27
TTGACCACGTGGGGGG	-0.1
GGCAGCACGTGGGTGG	-0.04
TGTGACACGTGATTGC	0.31
TGTTTCACGTGTAATG	0.32
TGGTGCACGTGGAAGC	-0.03

Sequence	relative binding free energy [kcal/mol]
ATTGGCACGTGTCTTG	-0.1
ATCTTCACGTGCGTTT	0.13
TATAGCACGTGATGTT	0.03
AGAAACACGTGAGGGT	0.12
AAGGGCACGTGCAGCG	-0.02
TGGTGCACGTGCGGTT	-0.03
GGAGTCACGTGTTTTT	0.25
TTGGACACGTGATATT	0.09
TTTGTCACGTGAGTAG	0.26
ATGGTCACGTGGTATT	0.03
GTATACACGTGATTGT	0.21
AAGTGCACGTGAGGAG	0.15
TTAAGCACGTGGGTTG	-0.21
GGAGCCACGTGGGTGG	-0.25
CTTTGCACGTGTGAGT	0
GATGTCACGTGGGCGA	0.05
GTTCACACGTGTGGCG	0.13
TGATGCACGTGCGTTA	-0.08
TTGATCACGTGTGATC	0.2
AGAGTCACGTGTGTCG	0.06
TGTTGCACGTGGATCA	-0.07
AAGTTCACGTGTAGTA	0.21
AATTGCACGTGGGGTC	-0.13

Sequence	relative binding free energy [kcal/mol]
GGTAACACGTGTTGAG	0.01
GTTGGCACGTGTAGTT	0.08
TTTATCACGTGTGAGC	0.28
TAATTCACGTGTTGCA	0.08
GTTATCACGTGGCGTC	0.23
TTTGGCACGTGTGTGC	0.11
ATTAACACGTGGTTAG	0.01
TTTTTCACGTGCTTAT	0.19
ATGATCACGTGTGTGA	-0.04
TTGTTCACGTGGTGTA	0.28
ATGGGCACGTGTGTAT	-0.17
CGTCGCACGTGCGGTT	-0.04
AATATCACGTGCTAGT	0.17
GGCTGCACGTGTAGTA	-0.1
TTGACCACGTGAGGGG	0.16
GTTTGCACGTGAGATA	0.41
TGTAGCACGTGTGTCG	0.02
GTAAACACGTGTGGGT	0.03
TCGTGCACGTGGTTGG	-0.11
TTATCCACGTGTAATG	0.14
GGCTGCACGTGCGTGT	-0.12
GGCGTCACGTGTTTGG	0.18
AGGCACACGTGGTAAG	0.17

Sequence	relative binding free energy [kcal/mol]
GGTTACACGTGCGTAG	0.09
TTGGTCACGTGGCTAA	0.06
TTGAACACGTGAGGTA	0.38
TATAGCACGTGAGGCT	0.03
AGGTGCACGTGGGTAT	-0.08
GGGGCCACGTGTAAGA	0.1
TTTGTCACGTGGCGTC	-0.03
GTTGGCACGTGGACAA	0
TTGTGCACGTGATTTG	0.19
CATGACACGTGGGTAA	0.04
TGGATCACGTGGGCCG	-0.06
GCATGCACGTGATGGT	0
CTTCTCACGTGGTGTA	0.09
TAATGCACGTGTGTTA	-0.22
ATGTTCACGTGCGCGG	0.24
ATAGTCACGTGTCCGG	0.19
AAAATCACGTGAGGGG	0.23
TATAACACGTGTATAG	0.06
TAAATCACGTGAAGTG	0.18
GAATGCACGTGCTTTT	0.1
GCGGTCACGTGGTTTC	0.27
AGGGCCACGTGTTGGC	-0.1
GTATTCACGTGACTGG	0.25
